This is one part of the list. Sequences were assembled here from the parent chain. Inactive controls read about 0.05.
B1: TEV protease; numbered along this chain (parent)
chain: MGESLFKGPRDYNPISSSICHLTNESDGHTTSLYGIGFGPFIITNKHLFRRNNGTLVVQSLHGVFKVKDTTTLQQHLVDGRDMIIIRMPKDFPPFPQKLKFREPQREERICLVTTNFQTKSMSSMVSDTSCTFPSGDGIFWKHWIQTKDGQCGSPLVSTRDGFIVGIHSASNFTNTNNYFTSVPKNFMELLTNQEAQQWVSGWRLNADSVLWGGHKVFMVKPEEPFQPVKEATQL

Variants of: B1
Test: raw area under fraction-flipped curve 0-4 h after induction (AUC4h, not background-subtracted), DNA-recorder readout of cleavage of the substrate (dimensionless); higher = more cleavage of the substrate by the protease variant
Conditions: temperature: 34 °C; time window: 0-4 h after rhamnose induction
Description: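 In vivo DNA recorder in E. coli TOP10(DE3) ΔrhaA at 34 °C. Each TEVp single-site mutant (parent TEVp 0) is paired with a single-site variant of the 7-mer TEVs (canonical ENLYFQ|S). The substrate sits between flexible linkers in a Bxb1-sfGFP-TEVs-SsrA fusion, so cleavage stabilises Bxb1 and speeds flipping of a recombination array, read by NGS. The value is the raw area under the fraction-flipped curve over 0-4 h after rhamnose induction (AUC4h), with ≥20 reads per time point. It is not background-subtracted; inactive controls average about 0.047.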
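Further: Bxb1 expression induced with 0.2% (w/v) L-rhamnose at OD600 near 0.5, cultures sampled hourly, flipped fraction per protease–substrate barcode pair counted by paired-end Illumina sequencing.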

MGESLFKGPRDYNPISSSICHLTNESDGHTTSLYGIGFGPFIITNKHLARRNNGTLVVQSLHGVFKVKDTTTLQQHLVDGRDMIIIRMPKDFPPFPQKLKFREPQREERICLVTTNFQTKSMSSMVSDTSCTFPSGDGIFWKHWIQTKDGQCGSPLVSTRDGFIVGIHSASNFTNTNNYFTSVPKNFMELLTNQEAQQWVSGWRLNADSVLWGGHKVFMVKPEEPFQPVKEATQL [F49A]
area with substrate ENLYFQA: 0.056 | area with substrate ENLYFQC: 0.0725 | area with substrate ENLYFQD: 0.0568 | area with substrate ENLYFQE: 0.0472 | area with substrate ENLYFQG: 0.0871 | area with substrate ENLYFQH: 0.0662 | area with substrate ENLYFQI: 0.0467 | area with substrate ENLYFQK: 0.0601 | area with substrate ENLYFQL: 0.042 | area with substrate ENLYFQM: 0.0558 | area with substrate ENLYFQN: 0.0403 | area with substrate ENLYFQP: 0.0666 | area with substrate ENLYFQR: 0.0492 | area with substrate ENLYFQS: 0.0602 | area with substrate ENLYFQT: 0.0521 | area with substrate ENLYFQV: 0.0533 | area with substrate ENLYFQW: 0.0666 | area with substrate ENLYFQY: 0.0628

MGESLFKGPRDYNPISSSICHLTNESDGHTTSLYGIGFGPFIITNMHLFRRNNGTLVVQSLHGVFKVKDTTTLQQHLVDGRDMIIIRMPKDFPPFPQKLKFREPQREERICLVTTNFQTKSMSSMVSDTSCTFPSGDGIFWKHWIQTKDGQCGSPLVSTRDGFIVGIHSASNFTNTNNYFTSVPKNFMELLTNQEAQQWVSGWRLNADSVLWGGHKVFMVKPEEPFQPVKEATQL [K46M]
area with substrate ENLYFQA: 0.105 | area with substrate ENLYFQC: 0.0829 | area with substrate ENLYFQD: 0.0572 | area with substrate ENLYFQE: 0.0618 | area with substrate ENLYFQG: 0.11 | area with substrate ENLYFQH: 0.0666 | area with substrate ENLYFQI: 0.0506 | area with substrate ENLYFQK: 0.106 | area with substrate ENLYFQL: 0.0541 | area with substrate ENLYFQM: 0.0563 | area with substrate ENLYFQP: 0.0687 | area with substrate ENLYFQR: 0.0556 | area with substrate ENLYFQS: 0.0942 | area with substrate ENLYFQT: 0.0564 | area with substrate ENLYFQV: 0.0483 | area with substrate ENLYFQW: 0.0369 | area with substrate ENLYFQY: 0.0458

MGESLFKGPRDYNPISSSICHLTNESDGHTTSLYGIGFGPFIITNCHLFRRNNGTLVVQSLHGVFKVKDTTTLQQHLVDGRDMIIIRMPKDFPPFPQKLKFREPQREERICLVTTNFQTKSMSSMVSDTSCTFPSGDGIFWKHWIQTKDGQCGSPLVSTRDGFIVGIHSASNFTNTNNYFTSVPKNFMELLTNQEAQQWVSGWRLNADSVLWGGHKVFMVKPEEPFQPVKEATQL [K46C]
area with substrate ENLYFQA: 0.126 | area with substrate ENLYFQC: 0.131 | area with substrate ENLYFQF: 0.0621 | area with substrate ENLYFQG: 0.104 | area with substrate ENLYFQH: 0.0752 | area with substrate ENLYFQI: 0.0629 | area with substrate ENLYFQL: 0.0589 | area with substrate ENLYFQM: 0.0762 | area with substrate ENLYFQN: 0.0573 | area with substrate ENLYFQP: 0.0568 | area with substrate ENLYFQQ: 0.0624 | area with substrate ENLYFQR: 0.0574 | area with substrate ENLYFQS: 0.103 | area with substrate ENLYFQT: 0.0817 | area with substrate ENLYFQV: 0.0588 | area with substrate ENLYFQW: 0.0434 | area with substrate ENLYFQY: 0.0578

MGESLFKGPRDYNPISSSICHLTNESDGHTTSLYGIGFGPFIITNAHLFRRNNGTLVVQSLHGVFKVKDTTTLQQHLVDGRDMIIIRMPKDFPPFPQKLKFREPQREERICLVTTNFQTKSMSSMVSDTSCTFPSGDGIFWKHWIQTKDGQCGSPLVSTRDGFIVGIHSASNFTNTNNYFTSVPKNFMELLTNQEAQQWVSGWRLNADSVLWGGHKVFMVKPEEPFQPVKEATQL [K46A]
area with substrate ENLYFQA: 0.121 | area with substrate ENLYFQC: 0.199 | area with substrate ENLYFQD: 0.0473 | area with substrate ENLYFQE: 0.0607 | area with substrate ENLYFQG: 0.133 | area with substrate ENLYFQH: 0.0987 | area with substrate ENLYFQI: 0.0607 | area with substrate ENLYFQK: 0.0716 | area with substrate ENLYFQL: 0.0651 | area with substrate ENLYFQM: 0.12 | area with substrate ENLYFQN: 0.103 | area with substrate ENLYFQP: 0.0655 | area with substrate ENLYFQQ: 0.0889 | area with substrate ENLYFQR: 0.0654 | area with substrate ENLYFQS: 0.127 | area with substrate ENLYFQT: 0.0634 | area with substrate ENLYFQV: 0.0571 | area with substrate ENLYFQW: 0.0733 | area with substrate ENLYFQY: 0.0901

MGESLFKGPRDYNPISSSICHLTNESDGHTTSLYGIGFGPFIITNTHLFRRNNGTLVVQSLHGVFKVKDTTTLQQHLVDGRDMIIIRMPKDFPPFPQKLKFREPQREERICLVTTNFQTKSMSSMVSDTSCTFPSGDGIFWKHWIQTKDGQCGSPLVSTRDGFIVGIHSASNFTNTNNYFTSVPKNFMELLTNQEAQQWVSGWRLNADSVLWGGHKVFMVKPEEPFQPVKEATQL [K46T]
area with substrate ENLYFQA: 0.0715 | area with substrate ENLYFQC: 0.124 | area with substrate ENLYFQD: 0.0728 | area with substrate ENLYFQE: 0.0339 | area with substrate ENLYFQG: 0.0812 | area with substrate ENLYFQH: 0.0748 | area with substrate ENLYFQI: 0.0526 | area with substrate ENLYFQK: 0.0353 | area with substrate ENLYFQL: 0.0318 | area with substrate ENLYFQM: 0.057 | area with substrate ENLYFQN: 0.0655 | area with substrate ENLYFQP: 0.0637 | area with substrate ENLYFQQ: 0.0978 | area with substrate ENLYFQR: 0.0565 | area with substrate ENLYFQS: 0.0838 | area with substrate ENLYFQT: 0.0564 | area with substrate ENLYFQV: 0.0595 | area with substrate ENLYFQW: 0.0588 | area with substrate ENLYFQY: 0.0556

MGESLFKGPRDYNPISSSICHLTNESDGHTTSLYGIGFGPFIIPNKHLFRRNNGTLVVQSLHGVFKVKDTTTLQQHLVDGRDMIIIRMPKDFPPFPQKLKFREPQREERICLVTTNFQTKSMSSMVSDTSCTFPSGDGIFWKHWIQTKDGQCGSPLVSTRDGFIVGIHSASNFTNTNNYFTSVPKNFMELLTNQEAQQWVSGWRLNADSVLWGGHKVFMVKPEEPFQPVKEATQL [T44P]
area with substrate ENLYFQA: 0.031 | area with substrate ENLYFQC: 0.0356 | area with substrate ENLYFQD: 0.0315 | area with substrate ENLYFQG: 0.123 | area with substrate ENLYFQH: 0.0475 | area with substrate ENLYFQK: 0.0418 | area with substrate ENLYFQL: 0.043 | area with substrate ENLYFQM: 0.0395 | area with substrate ENLYFQN: 0.0405 | area with substrate ENLYFQP: 0.0268 | area with substrate ENLYFQQ: 0.0407 | area with substrate ENLYFQR: 0.0419 | area with substrate ENLYFQS: 0.0416 | area with substrate ENLYFQT: 0.079 | area with substrate ENLYFQV: 0.0422 | area with substrate ENLYFQW: 0.0409 | area with substrate ENLYFQY: 0.0256

MGESLFKGPRDYNPISSSICHLTNESDGHTTSLYGIGFGPFIISNKHLFRRNNGTLVVQSLHGVFKVKDTTTLQQHLVDGRDMIIIRMPKDFPPFPQKLKFREPQREERICLVTTNFQTKSMSSMVSDTSCTFPSGDGIFWKHWIQTKDGQCGSPLVSTRDGFIVGIHSASNFTNTNNYFTSVPKNFMELLTNQEAQQWVSGWRLNADSVLWGGHKVFMVKPEEPFQPVKEATQL [T44S]
area with substrate ENLYFQA: 0.0887 | area with substrate ENLYFQC: 0.123 | area with substrate ENLYFQG: 0.0864 | area with substrate ENLYFQH: 0.0853 | area with substrate ENLYFQI: 0.0676 | area with substrate ENLYFQK: 0.0572 | area with substrate ENLYFQL: 0.0533 | area with substrate ENLYFQM: 0.0841 | area with substrate ENLYFQN: 0.0724 | area with substrate ENLYFQP: 0.0547 | area with substrate ENLYFQQ: 0.0642 | area with substrate ENLYFQR: 0.0607 | area with substrate ENLYFQS: 0.0946 | area with substrate ENLYFQT: 0.0742 | area with substrate ENLYFQW: 0.041

MGESLFKGPRDYNPISSSICHLTNESDGHTTSLYGIGFGPFIITNKELFRRNNGTLVVQSLHGVFKVKDTTTLQQHLVDGRDMIIIRMPKDFPPFPQKLKFREPQREERICLVTTNFQTKSMSSMVSDTSCTFPSGDGIFWKHWIQTKDGQCGSPLVSTRDGFIVGIHSASNFTNTNNYFTSVPKNFMELLTNQEAQQWVSGWRLNADSVLWGGHKVFMVKPEEPFQPVKEATQL [H47E]
area with substrate ENLYFQA: 0.0492 | area with substrate ENLYFQC: 0.0918 | area with substrate ENLYFQD: 0.0443 | area with substrate ENLYFQE: 0.0578 | area with substrate ENLYFQG: 0.0659 | area with substrate ENLYFQI: 0.0476 | area with substrate ENLYFQL: 0.0597 | area with substrate ENLYFQM: 0.0553 | area with substrate ENLYFQN: 0.0641 | area with substrate ENLYFQR: 0.0527 | area with substrate ENLYFQS: 0.06 | area with substrate ENLYFQT: 0.0541 | area with substrate ENLYFQV: 0.0502 | area with substrate ENLYFQW: 0.0475 | area with substrate ENLYFQY: 0.0565

MGESLFKGPRDYNPISSSICHLTNESDGHTTSLYGIGFGPFIITTKHLFRRNNGTLVVQSLHGVFKVKDTTTLQQHLVDGRDMIIIRMPKDFPPFPQKLKFREPQREERICLVTTNFQTKSMSSMVSDTSCTFPSGDGIFWKHWIQTKDGQCGSPLVSTRDGFIVGIHSASNFTNTNNYFTSVPKNFMELLTNQEAQQWVSGWRLNADSVLWGGHKVFMVKPEEPFQPVKEATQL [N45T]
area with substrate ENLYFQA: 0.0803 | area with substrate ENLYFQC: 0.0886 | area with substrate ENLYFQD: 0.0515 | area with substrate ENLYFQF: 0.0458 | area with substrate ENLYFQG: 0.0901 | area with substrate ENLYFQH: 0.0613 | area with substrate ENLYFQI: 0.0365 | area with substrate ENLYFQK: 0.0648 | area with substrate ENLYFQL: 0.0368 | area with substrate ENLYFQM: 0.0679 | area with substrate ENLYFQN: 0.0612 | area with substrate ENLYFQP: 0.0549 | area with substrate ENLYFQR: 0.0639 | area with substrate ENLYFQS: 0.0828 | area with substrate ENLYFQT: 0.0661 | area with substrate ENLYFQV: 0.0621 | area with substrate ENLYFQW: 0.0468 | area with substrate ENLYFQY: 0.0559
